Measured values published in the RNAGym collection of RNA variant scans (doi:10.1073/pnas.2313332121).
This sample is rich in variants without activity.

B1: TPR 5TU (parent)
chain: GGAUCUUCUCGAUCUAACAAAAAAGACAAAUCUGCCACAAAGCUUGAGAGCAUCUUCGGAUGCAGAGGCGGCAGCCUUCGGUGGCGCGAUAGCGCCAACGUUCUCAACUAUGACACGCAAAACGCGUGCUCCGUUGAAUGGAGUUUAUCAUG

Variants of: B1
Experiment: polymerase ribozyme fitness, log enrichment relative to wild type (log ratio); higher = more active; in vitro selection for triplet polymerase activity
Procedure, shortened: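 PCR was used to build mutant libraries for each subunit of a heterodimeric triplet polymerase ribozyme, which were then transcribed. A single in vitro selection round, in triplicate, used a frozen incubation at −7 °C and recovered extended constructs by gel excision, streptavidin beads and RT-PCR. Fitness is the logarithm of genotype enrichment relative to wild-type enrichment, averaged over replicates with inverse-variance weights. The logarithm is base 2, and after Illumina sequencing only genotypes with ≥10 input reads and ≥1 read per output were kept.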

Compared with U6A A12U U53A C114U, U6C G11A A37G A52G G86A G100A is lower in “polymerase ribozyme fitness (log ratio)” value: -3.59 for the first, at most -4.2 for the second.

U6C U31G A39C A150G and C5G U78A A91U G152C cannot be ordered by “polymerase ribozyme fitness (log ratio)” value: at most -4.2 for the first, at most -4.2 for the second.

U6A C14A U15C U56A C69A U130A and U6G A16C G42A cannot be ordered by “polymerase ribozyme fitness (log ratio)” value: at most -4.2 for the first, at most -4.2 for the second.

U6A C38U A47C A52C C54A A66U U90C A107C A150C and U6G A12G U53G A115G G133A cannot be ordered by “polymerase ribozyme fitness (log ratio)” value: at most -4.2 for the first, at most -4.2 for the second.

First: U6C C95U A98U C99U
Second: U6A A17G A52C A64U G68A C87G C96U G143U A150C
The “polymerase ribozyme fitness (log ratio)” value of the first is higher: -2.4 for the first, at most -4.2 for the second.

First: U6A C18G A47G A49C G81A A97G C116G
Second: C5U A12U G84U
The “polymerase ribozyme fitness (log ratio)” value of the first is lower: at most -4.2 for the first, -1.92 for the second.

C5U C14G A26C U56A G70C U78C A97U G141U and C5U A20C A29G A115C U130G C132U U146C cannot be ordered by “polymerase ribozyme fitness (log ratio)” value: at most -4.2 for the first, at most -4.2 for the second.

C5U U55G A60U G81U G86U A98C U127G G136U and C5U A19G A23G G58U G81A G94C C116A C129U U135C U146G cannot be ordered by “polymerase ribozyme fitness (log ratio)” value: at most -4.2 for the first, at most -4.2 for the second.

U6C C14G U55G A60U and C5U A39U G62A C79G cannot be ordered by “polymerase ribozyme fitness (log ratio)” value: at most -4.2 for the first, at most -4.2 for the second.

C5U A52G A60U C93A G126A and C5U G25A A37U U44A U53A C79U C85A G94A U134G G152A cannot be ordered by “polymerase ribozyme fitness (log ratio)” value: at most -4.2 for the first, at most -4.2 for the second.

U6A G25A A26C G50U A52G C76G C118G G136A and U6A U31G G59A U61A C63A G92C C103U A121C C132A A138C cannot be ordered by “polymerase ribozyme fitness (log ratio)” value: at most -4.2 for the first, at most -4.2 for the second.

Going from C5U G83U A138U A142U to U6C U61A C85U A97C A120G, the “polymerase ribozyme fitness (log ratio)” value rises from at most -4.2 to -3.12.

C5U C27U G62A C69U C85G C95G and U6G A12G U56A A66C C87G A150C cannot be ordered by “polymerase ribozyme fitness (log ratio)” value: at most -4.2 for the first, at most -4.2 for the second.

C5U A49U G81A C96G C132G and U6A G58A U77G G88A C103G A137U cannot be ordered by “polymerase ribozyme fitness (log ratio)” value: at most -4.2 for the first, at most -4.2 for the second.

Compared with U6A C93A, U6G A23U C57U C85A G117U is lower in “polymerase ribozyme fitness (log ratio)” value: -2.58 for the first, at most -4.2 for the second.

C5U C14A A19G A29U U61A G88C and U6A C8A G25A C36U U53A U55G C85G A89G cannot be ordered by “polymerase ribozyme fitness (log ratio)” value: at most -4.2 for the first, at most -4.2 for the second.

U6G A22U U90G A97C U102G U109C and C5U C14G A22U A121G U148A cannot be ordered by “polymerase ribozyme fitness (log ratio)” value: at most -4.2 for the first, at most -4.2 for the second.

Compared with C5U A73U G83A, U6A C38G C85U C95U C103G A113G C114U A142C is lower in “polymerase ribozyme fitness (log ratio)” value: -0.929 for the first, at most -4.2 for the second.

C5U U45A G50U G86C C96U and U6A G11A U45A U53G C76U U90G C118U cannot be ordered by “polymerase ribozyme fitness (log ratio)” value: at most -4.2 for the first, at most -4.2 for the second.

C5G U56G C96A C118U A137U G140C G141C and U6C C72A G83A A121G cannot be ordered by “polymerase ribozyme fitness (log ratio)” value: at most -4.2 for the first, at most -4.2 for the second.

C5U A29U G62A G67C A142U and U6C C38A C54U G88A C93G U139G cannot be ordered by “polymerase ribozyme fitness (log ratio)” value: at most -4.2 for the first, at most -4.2 for the second.

U6C A39C A66G U90A C93A C99A G100C C103A C116G A147C and U6G A21U C57G G71U A91U U139A cannot be ordered by “polymerase ribozyme fitness (log ratio)” value: at most -4.2 for the first, at most -4.2 for the second.

First: C5G U44C G58C C85A G141A
Second: C5U U55A
The “polymerase ribozyme fitness (log ratio)” value of the first is lower: at most -4.2 for the first, 0.322 for the second.

U6A C10G A16G A21U C36U G83U U90A C93U A110G G126C and U6A C8G A60C G62A C85A C103A cannot be ordered by “polymerase ribozyme fitness (log ratio)” value: at most -4.2 for the first, at most -4.2 for the second.

Compared with U6A A37G C54G C87U G124C U146C, U6A A22U G59U A73U U109G is higher in “polymerase ribozyme fitness (log ratio)” value: at most -4.2 for the first, -3.52 for the second.

U6C A40U G74A C93A C95G U111C U127G and C5U U7G G11C A30U A47C C54G C57U A64C G92C C131A cannot be ordered by “polymerase ribozyme fitness (log ratio)” value: at most -4.2 for the first, at most -4.2 for the second.

U6A C38G C43U A47G A91C G126U and U6C C10A A16G A20C C85U A120C U145C cannot be ordered by “polymerase ribozyme fitness (log ratio)” value: at most -4.2 for the first, at most -4.2 for the second.

First: U6A C69G G84U U145C
Second: C5G U53A G92C A137G
The “polymerase ribozyme fitness (log ratio)” value of the first is higher: -1.67 for the first, at most -4.2 for the second.

U6A U7G C36U C85A U144A and U6A G42A G59U A60G C85A U139C cannot be ordered by “polymerase ribozyme fitness (log ratio)” value: at most -4.2 for the first, at most -4.2 for the second.

U6C C8A A20C G46A G80U G141C and C5G U56G G84A A107C cannot be ordered by “polymerase ribozyme fitness (log ratio)” value: at most -4.2 for the first, at most -4.2 for the second.

U6A U31A C36U A52C G65C U101G C103U G136U and U6A A30U C54A G84A C93A cannot be ordered by “polymerase ribozyme fitness (log ratio)” value: at most -4.2 for the first, at most -4.2 for the second.

U6A C43U and C5U C8G A22C G81U G86A A97U A106G C116U G141C cannot be ordered by “polymerase ribozyme fitness (log ratio)” value: at most -4.2 for the first, at most -4.2 for the second.

C5U A16U U53C G86U C114G C118A U130G and U6G A23G G48U G50C G68A U78G U101A cannot be ordered by “polymerase ribozyme fitness (log ratio)” value: at most -4.2 for the first, at most -4.2 for the second.

Going from U6C U56C A89C A121U to U6G A20U A73U U134C U145G, the “polymerase ribozyme fitness (log ratio)” value falls from -2.59 to -3.22.

U6A G42C A49C A52C C75U C85U A91U and U6C A30U A40U U135C A147C cannot be ordered by “polymerase ribozyme fitness (log ratio)” value: at most -4.2 for the first, at most -4.2 for the second.

First: C5U G84A C95A
Second: U6C U9G C76A G88A A91U
The “polymerase ribozyme fitness (log ratio)” value of the first is higher: 0.351 for the first, at most -4.2 for the second.

U6C C10U A23G C27G G58C C75G G81A C85A C105G G140A and U6A A39C U45A A60C C87G C96A cannot be ordered by “polymerase ribozyme fitness (log ratio)” value: at most -4.2 for the first, at most -4.2 for the second.

U6A U31A A52C C93U A113G C114U and U6A G80C G94A cannot be ordered by “polymerase ribozyme fitness (log ratio)” value: at most -4.2 for the first, at most -4.2 for the second.

U6C U61A C76A G94C A110C and U6A A20U A30U A47C U56A G68U cannot be ordered by “polymerase ribozyme fitness (log ratio)” value: at most -4.2 for the first, at most -4.2 for the second.

U6G A22U A40G C57A G94A and C5U A19G C57U G84U G117U A120U are within 0.2 log units of each other in “polymerase ribozyme fitness (log ratio)” value: -2.43 for the first, -2.48 for the second.

U6C C18G A26U A40C A47C A49G U61G A73U C76G C87G and U6C U13G C43G C76U U90A U151G cannot be ordered by “polymerase ribozyme fitness (log ratio)” value: at most -4.2 for the first, at most -4.2 for the second.

In the case of U6A C14G A26C C63G G65C U78G, the “polymerase ribozyme fitness (log ratio)” value is reported as at most -4.2.
